From PubChem BioAssay AID1963576 (National Center for Advancing Translational Sciences (NCATS), 2024)
Hit rate of the full screen: of about 46,000 compounds, about 60 (0.1%) were called active. Not shown: some 3% with an inconclusive outcome. Calls come from the whole dose curve; as a rule, active = well fitted inhibition curve with a large enough effect; inconclusive = small, poorly fitted or top-dose-only effect; inactive = no such curve, though single readings can be large or run the other way. This is one part of the list.

Experiment: Primary qHTS assay for Inhibitors of ovarian cancer metastasis using an organotypic tumor microenvironment (TME) model.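 For activity change, negative = inhibition: plate controls were DMSO wells for no effect and tomatine positive control wells for full effect.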 Note: nearly all actives have a fitted effect of over 65% in size.
Details: SKOV3ip1-GFP adhesion/invasion on 3D omental model, fluorescence; series mostly up to 45.8 µM; activity change, negative = inhibition: at the top concentration
Method in brief: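 Primary human omental fibroblast/mesothelial 3D culture pre-formed 48 h. SKOV3ip1-GFP cells added with compounds (0.36-46 umol/L), incubated 2 h RT/16 h 37 C, fixed; GFP cells quantified at 488/509 nm.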

Activity change, negative = inhibition, inactive:
COc1ccc(C)cc1Nc1nc2c(S(=O)(=O)c3cc(C)ccc3C)nnn2c2ccsc12 16.8%
CCCCCn1c(=O)[nH]c2cc(C(=O)N3CCN(c4ccc(OC)cc4)CC3)ccc2c1=O 26.2%
COc1ccc(Cn2c(CCC(=O)Nc3ccc(Br)c(C)c3)nc3cccnc32)cc1 2.5%
CN(C)c1ccc(C(=O)Nc2sc(Nc3ccccc3)nc2C(N)=O)cc1 21.9%
O=C(Cn1ncn2c(cc3cc(F)ccc32)c1=O)NC1CCCCC1 -1.1%
Cc1ccc(NC(=O)CN(C)S(=O)(=O)c2cccc3cccnc23)c(C)c1 14.4%
CCOC(=O)C1CCC(CN(Cc2ccc(OC)cc2)S(=O)(=O)c2ccc(C)cc2)CC1 (stereo not drawn) 0.637%
CCc1ccc(CN(Cc2ccco2)c2cnc(S(C)(=O)=O)nc2C(=O)Nc2ccc(C)c(Cl)c2)cc1 2.69%
CCCC(=O)Oc1c(Sc2ccc(C)cc2)c(C)nn1-c1ccccc1 -6.86%
O=C(Nc1cc(Cl)cc(Cl)c1)c1ccc(F)c(S(=O)(=O)N2CCCC2)c1 -9.49%
CC1Cc2cc(S(=O)(=O)CCC(=O)Nc3cccc(F)c3)ccc2N1C(=O)C1CC1 (stereo not drawn) -6.63%
CC(=O)Nc1ccc(S(=O)(=O)N2CCC(N3CCN(Cc4ccc(C)cc4)C(=O)C3=O)CC2)cc1 3.29%
Cc1cc(C)cc(NS(=O)(=O)c2cc3[nH]c(=O)c(=O)[nH]c3cc2C)c1 0.461%
CCC(Sc1nc2cc3c(cc2c(=O)n1CCCCCC(=O)NCc1ccc2c(c1)OCO2)OCO3)C(=O)NCCCOC (stereo not drawn) -0.256%
COc1ccc(CCNC(=O)C(=O)NCC(c2ccco2)S(=O)(=O)c2cccs2)cc1 (stereo not drawn) 8.31%
Cc1cccc(OCCn2c(SCC(N)=O)nc3ccccc32)c1 -1.57%
Cc1nn2c(=O)cc(COC(=O)c3ccc(NC(=O)CCc4ccccc4)cc3)nc2s1 -5.17%
O=C(CN1C(=O)c2cccnc2Oc2ccc(Cl)cc21)NCCCN1CCCCC1 -2.39%
COc1cc2c(C(=O)N3CCN(c4cccc(Cl)c4)CC3)cn(C)c(=O)c2cc1OC -42.7%
O=C(Nc1cccc(Br)c1)Nc1nc2c(s1)CCCCCC2 -19.1%
Cc1c(Cl)cccc1NC(=O)c1cc(-c2cccc(Cl)c2)on1 -20.2%
CC(C)C(=O)Nc1ccccc1C(=O)OCc1cc(=O)n2nc(C3CC3)sc2n1 -2.3%
Cc1cccn2c(=O)c3cc(C(=O)NC(C)C)n(C)c3nc12 2.72%
O=C(Nc1ccc2nc(SCCOc3ccccc3)sc2c1)c1ccco1 -10.3%
COc1cccc(CCNC(=O)c2ccc(Cn3c(SCc4ccccc4)nc4cccnc43)cc2)c1 0.038%
COc1ccc(NC(=O)c2cnc(N3CCOCC3)c3ccccc23)cc1OC 2.29%
Cc1ccn2c(c1)nc(=O)c1cc(S(=O)(=O)N3CCCCC3)ccc12 -7.05%
CCOC(=O)N1CCC(NC(=O)c2cnn(-c3ccc(C)cc3)c2-n2cccc2)CC1 -1.1%
CCOc1ccc(NC(=O)Cn2cc(C(=O)c3ccc(F)cc3)c(=O)c3cc4c(cc32)OCO4)cc1 21.5%
Cc1ccccc1NC(=O)C1CCN(C(=O)c2ccc(F)cc2)CC1 10.5%
Cc1cccc(-c2noc(CNC(=O)c3ccco3)n2)c1 3.9%
CCOC(=O)c1ccc(NC(=O)C2Cc3ccccc3C(=O)O2)cc1 (stereo not drawn) 22.9%
COc1ccccc1-c1nn2c(=O)cc(CN3CCN(S(=O)(=O)c4ccc(C)cc4)CC3)nc2s1 3.18%
Cc1ccc(-n2nnnc2CNC(=O)c2ccc(F)cc2)cc1C 14.6%
CC(=O)Nc1ccc(C)cc1-c1nc2ccccc2n(CC(=O)c2ccc(Cl)cc2)c1=O 18.3%
COc1ccc(OC)c(CNC(=O)c2ccccc2NC(=O)c2nsc3ccccc23)c1 2.31%
Clc1ccc(COC(Cn2ccnc2)c2ccc(Cl)cc2Cl)c(Cl)c1 (stereo not drawn) -8.68%
Cc1ccc(N2CCn3c2nc2c3c(=O)n(CCCc3ccccc3)c(=O)n2C)cc1 -0.911%
Cc1c(Cl)cccc1NC(=O)Cn1nc(C(F)(F)F)c2c1CCC2 1.53%
Cc1ccc(CNC(=O)NC2COc3ccccc3C2)cc1 (stereo not drawn) 10.8%
Cc1ccc(C2=Nc3ccccc3N(CC(=O)Nc3ccccc3C)C(=O)C2)cc1C 1.38%
CCOc1ccccc1C(=O)N1CCN(CCc2ccccn2)CC1 -4.62%
CCN1CCOC(=O)C1CC(=O)Nc1cccc(OC)c1 (stereo not drawn) 2.85%
CC1=C(C(=O)Nc2ccccc2)C(c2cccc(O)c2)n2nc(-c3ccccc3Cl)nc2N1 (stereo not drawn) 6.58%
Cc1onc(-c2ccccc2Cl)c1C(=O)Oc1ccc(Br)cc1 3.19%
Cc1ccc(NC(=O)C2CCCN(S(=O)(=O)c3cccc4cccnc34)C2)c(Br)c1 (stereo not drawn) 5.9%
COc1ccc(CCNC(=O)c2c(C)oc3nc(C)nc(N4CCOCC4)c23)cc1OC -3.63%
Cc1cc(C)n(-c2nc3ccccc3nc2Nc2cccc(C(=O)NCCc3ccccc3)c2)n1 6.68%
CC(C)CC(=O)NCC(c1ccc2c(c1)OCO2)N1CCN(c2ccccc2F)CC1 (stereo not drawn) 3.12%
Cc1ccccc1N(C)C(=O)c1noc2c1COc1ccccc1-2 -9.21%
Cc1cccc(-c2nc(SCC(=O)NCC3CCCO3)c3c(=O)n(C)c(=O)n(C)c3n2)c1 (stereo not drawn) -4.75%
CCC(=O)Nc1ccc(C)cc1-c1nc2ccccc2n(C(C)C(=O)Nc2ccccc2CC)c1=O (stereo not drawn) 1.79%
CCC(CC)C(=O)Nc1ccc(C(=O)OCc2cc(=O)n3nc(C4CC4)sc3n2)cc1 -4.2%
CCOc1ccc(-c2noc(CSc3nnc(-c4ccccc4)n3-c3ccccc3)n2)cc1 -11.9%
O=C(CCn1c(=O)c2cccn2c2cccnc21)NCc1ccccc1Br -0.939%
CC(=O)c1ccccc1NS(=O)(=O)c1cc2c(cc1C)NC(=O)CO2 -18.3%
CCN(CC)CCCNC(=O)CCCn1c(=O)[nH]c2ccc(Br)cc2c1=O -20.6%
O=C(NCc1ccccc1Cl)c1cccn1-c1nnc(N2CCCCC2)s1 31.7%
COc1cccc(CNC(=O)CN2N=C(c3ccc(C)cc3)CCC2=O)c1 -1.96%
Cc1ccc(-n2nc(C(=O)N3CCN(c4ccccc4F)CC3)c3c4ccccc4n(C)c3c2=O)cc1 -8.36%
CC1C(=O)Nc2ccc(S(=O)(=O)Nc3ccccc3Br)cc2NC1=O (stereo not drawn) -7.66%
COc1cc(Cl)ccc1OC(=O)c1cn(-c2ccccc2OC)c(=O)c2ccccc12 3.85%
CCC(=O)NC[C@H](Cc1ccc(OCCc2nc(-c3ccccc3)oc2C)cc1)NC(C)=CC(=O)c1ccc(C(F)(F)F)cc1 -14.4%
Fc1cccc(Cl)c1CNc1n[nH]c(-c2ccco2)n1 -2.54%
COc1ccc2c(c1)c1c(c(=O)n(-c3ccccc3)c(=O)n1CC(=O)Nc1ccc(F)cc1)n2C 9.65%
COc1ccc(NC(=O)Cc2csc(COc3cccc(C)c3)n2)cc1OC -4.69%
Cc1ccc(C)c(S(=O)(=O)c2nnn3c2nc(NCc2cccs2)c2sccc23)c1 -1.11%
Cc1ccc2nc(Cl)c3cc(C(=O)NCCCN4CCC(C)CC4)sc3c2c1 51.4%
Cc1c(-c2ccccc2)c(=O)oc2c(CN3CCN(C)CC3)c(O)ccc12 -18.4%
COc1ccc(Cl)cc1C(=O)Nc1ccc2oc(-c3ccc(C(C)(C)C)cc3)nc2c1 0.637%
CCc1cc2c(cc3c(=O)n(CC(=O)N4CCCCC4)nc(CC)n32)s1 3.27%
CCCCN(C)CC(O)Cn1cc(/C=C/C(=O)c2ccc(OC)c(OC)c2)c2ccccc21 (stereo not drawn) -22.2%
Cc1ccc(-c2nc(S(=O)(=O)c3ccc(Cl)cc3)c(N3CCCCC3)o2)cc1 -7.42%
Cc1cc2n(n1)CCCN2C(=O)Nc1ccc(Cl)cc1 -13.3%
NC12CC3CC(CC(C3)C1)C2 4.04%
CC(C)c1nnc(NC(=O)c2nc(SCc3ccc(F)cc3)ncc2Cl)s1 6.9%

outcome, inactive:
Cc1oc2c(cc(NS(=O)(=O)c3ccc(Br)cc3)c3ccccc32)c1C(=O)OCc1ccccc1
COc1cc(OC)c(C(=O)NCc2nc(-c3ccccc3)no2)cc1OC
O=C(Cn1nnc(-c2ccc(C(F)(F)F)cc2)n1)NCCc1ccccc1
CCc1noc(-c2ccc(N3CCC(C)CC3)c([N+](=O)[O-])c2)n1
CCOc1ccc(NC(=O)NC(C)c2c(-n3cccc3)sc3c2CCN(CC)C3)cc1 (stereo not drawn)
Cc1cccc(-c2nc3cc(NC(=O)c4ccc(OCC(C)C)cc4)ccc3o2)c1
COc1ccc(-c2nc3ccccc3n2Cc2ccc(C(C)C)cc2)cc1
Clc1cccc(N2CCN(c3ncnc4c3nc3n4CCCC3)CC2)c1
COc1cccc2cc(-c3cn4c(n3)sc3cc(F)ccc34)c(=O)oc12
COC(=O)c1cc2oc3ccccc3c2n1CC(=O)Nc1cc(OC)cc(OC)c1
Cc1cc(C)c(NC(=O)Cn2c(=O)n(CCc3ccccc3)c(=O)c3ccccc32)c(C)c1
Cn1cc(S(=O)(=O)N2CCCCCC2)cc1C(=O)NCc1ccc(Cl)cc1
CCN(c1ccc(OC)cc1)S(=O)(=O)c1nnc(NC(=O)COc2ccc(F)cc2)s1
Cc1ccc(N(C)S(=O)(=O)c2ccc3c(c2)C(C)(C)C(=O)N3C)cc1C
CCC(C(=O)N1CCN(c2cc(Cl)ccc2C)CC1)n1nc(C)c2sc3ccccc3c2c1=O (stereo not drawn)
CC(C)CCNC(=O)c1ccc(Cn2c(SCC(=O)NC(C)C)nc3ccccc3c2=O)cc1
Cc1ccc(Cl)cc1N1CCN(C(=O)c2cccn2-c2nnc(N3CCCCC3)s2)CC1
COc1ccc(N2CC(NC(=O)c3ccc4c(c3)OCO4)CC2=O)cc1OC (stereo not drawn)
CCc1ccc(-n2c(SCC(=O)NC(C)CC)nc3n[nH]c(C)c3c2=N)cc1 (stereo not drawn)
Cc1cc(NC(=O)c2ccc(-c3ccc(Br)cc3)o2)cc(-c2nc3ncccc3o2)c1O
CCCn1ccc2c(OCC(=O)NCc3ccc(F)cc3)cccc2c1=O
COc1ccc(CNC(=O)Cn2nnc(-c3ccccc3F)n2)cc1
